Reference: the supplement of paper PMC12632987
The full ranking holds about 1,800 sequences; the median of “median log2 fold change of GCK-ALFA target abundance (FLAG IP / Myc IP barcode read proportion)” is about 0.14, and the lowest 2% start at about -0.84. The list shows a part of the results.

T1: TRAF2, Q12933
T1 chain: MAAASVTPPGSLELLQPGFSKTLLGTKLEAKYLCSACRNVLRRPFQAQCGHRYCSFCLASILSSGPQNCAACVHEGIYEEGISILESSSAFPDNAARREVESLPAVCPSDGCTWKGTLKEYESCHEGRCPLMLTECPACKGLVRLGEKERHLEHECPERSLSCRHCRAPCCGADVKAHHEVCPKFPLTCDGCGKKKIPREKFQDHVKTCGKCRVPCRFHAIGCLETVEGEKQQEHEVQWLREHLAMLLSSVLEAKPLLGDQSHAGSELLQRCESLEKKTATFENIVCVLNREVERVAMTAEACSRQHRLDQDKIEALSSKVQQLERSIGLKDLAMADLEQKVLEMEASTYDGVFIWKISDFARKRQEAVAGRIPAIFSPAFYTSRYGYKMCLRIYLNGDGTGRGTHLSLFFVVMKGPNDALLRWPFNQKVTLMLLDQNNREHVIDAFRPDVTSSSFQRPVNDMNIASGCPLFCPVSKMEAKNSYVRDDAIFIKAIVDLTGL

B1: traf2_out_11_155_765 (protein)
chain: SKEQEIWQELNDKVAEIVDEAEKEVRELIETDERLSPEEKAELLAILDEKRKYGLRTMMAALIARYKELGREDLAKKVQEILDKAQEKMSKAAIEAEKKI
B2: traf2_out_17_162_1507 (protein)
chain: SPLEELRRRIEEELEELRRELERLEKKMENLKSMSKEELSDLLVEASEAKARALRLAELVREHREELGEEEAERLIREAEEIAERLQRIANEAYKELLKK
B3: traf2_out_15_181_1335 (protein)
chain: MTPEEIAARVAELKAEIAELKAKAEEYLKKAEAVKDTDLTEALVYYSEARRAYLRIAELYKEIAELTGDEATYKKKIEEAEKKAEELQKKMNELYKKIEK
B4: traf2_out_14_166_1289 (protein)
chain: MTPEEIERIREIVDKLEPLTEEAVERAEEILEKNRDKLSPEQLAELERLLEIARRNIGSSAINALREMAEIFEKAGLEEAAEEFRRLAEELEEKLRELNK
B5: traf2_out_1_158_916 (protein)
chain: DTKKNLILAVVELVGRFNIESALENGDEETAEKLREVVEKVIETVKKLLIEENKSVEEVIKEIEKIVEEAQKKVDPETAAKIRQLGRQIISGIKQVEKLM
B6: traf2_out_17_162_1520 (protein)
chain: SALEERLAELEEELEELREELERLKEKLKNLSSMSKEELTDLLVEASEARRRALELAEELERLKPLIGEERAGELIEEAREIAEELGRIANEIYKELEKK
B7: traf2_out_20_3_2214 (protein)
chain: EELRAEVERELEEIERLLAEAAPRLAPEDLARLRALLEEARAALETDPRDALVALSELRRALLELADRARAAGDEELAALLEAAAEAANRAANLVYRLLE
B8: traf2_out_13_95_1054 (protein)
chain: SAETAEKINEIADEALEEALALLEEARAEVADDPEASAVLDEALRLAETKGISEAIHLLEEARAADPAHAERFAALIERLRAIRREAGRKVAEVLKEAEE
B9: traf2_out_20_3_2118 (protein)
chain: EELEEELEKELEEALKLLKEAAKLADKKTAKKLEKLAKRLKESRKLSPSDRLVVVSEVRREVRRLRLEAEKKGDKKLAKVLDEAAEELNRAANLLMKIIE
B10: traf2_out_11_155_705 (protein)
chain: EKKKELQNELVDKMIEIEDKLKKEVDKIADEAAKEHPEHAAEIAKVRKESAPFSGTSYARIMAEKFKELGLEEYAEKVEKLLEKAQKEKNKIYKEIEEKM
B11: traf2_out_20_3_2174 (protein)
chain: SELEKELEKKLEEAIKLLKEAAKAADKETAKRLKELIKRLKESRKLSYSDRLVEVSEIRREVLRLAEEAKKKGDEELAKLLEEAAEALNKAANILYKIIQ
B12: traf2_out_13_95_1060 (protein)
chain: SAETAAKINALADEAEERALALLDAAKAELADDPEAVAALDRARRLARTRGIRAAIHELRRAKAAHPAHAAEWDALIAELEAIRRELGREVAKILKEEKE
B13: traf2_out_17_162_1592 (protein)
chain: SELEERVREFEERLEELEKKLKELKEKLKKIDELSKEELTDLLVEASEARREARELLEEIRELREELPEERYEELAERAEELAEEFQRIANKFYNKLLEK
B14: traf2_out_20_3_2262 (protein)
chain: DELRAKAEAALAEAEALLAELAPRLPAADAARLQELLDAAKAAFATDLRDALVYLSELRRLALALAEEARAAGDAALAAALEALADAVGRAANYVYKIIE
B15: traf2_out_11_155_763 (protein)
chain: SEKQEIYREYNDKVSEIADELEAFLEEVIAEVAKRDPEVAARARAVLAAHRDASARSRALLLARVLREAGLEEEAKRVEEAIEEAQKKMNEIAIETEKKL
B16: traf2_out_20_3_2230 (protein)
chain: EELKKKAEEALEKALKKLKEIIKEADPETAKVLTALLKELEKAKELDPVDRLVVVSKVRRTLLELAQKAKAAGNEELAKKLEEAAELLQRLAQLLYEIIE
B17: traf2_out_13_95_1066 (protein)
chain: SRETARKINELADKAEEKALALLDEARAALADDPEAVAALDEARRLAETRGIRAAIDALRQARAANPAHAAEFDALIAELEAIRRELGREVAKILKEAEE
B18: traf2_out_16_104_1372 (protein)
chain: DPALVAQAQAAIAEAQKAIEEAQKVLNELYKKYEKASPEEKVKLSDKMVEISEARRKVQQLVQELQALLASGADPAAIQAAIAKLQAAIKELKKLIEEAK
B19: traf2_out_13_95_1143 (protein)
chain: SAEVAKKIMEIADRMLAEKDAILDELEAELEARGLLTPEVAAALAAARRSSIRTAIHRLRELAERLPEARELLEAAIERLEAIQREAGREVAKILKEEEE
B20: traf2_out_20_3_2206 (protein)
chain: EELEEQLEKELERALKLLKEAAKLADEETKKVLEELIKELKESRKLSYEDRLVTLSEIRRKVRELALAARAAGDEELAAVLDEAADELQRAMNLVYKIIE
B21: traf2_out_13_95_1141 (protein)
chain: SAEVAAKINAIADRLLAEKDAILDELEAQLKAAGLLTPELRAALEAAKRSSISTAIHRLRELAERYPEARAALEAAIARLEALRREAGREVAEILKEEKE
B22: traf2_out_1_27_1008 (protein)
chain: SDEEFRELLREADRKLGSLSPEEALAAAREAIREALERGVGEARHLAVVLILSQSDPELAAALLEAIEEVLREAGVSEEVIEEIRRRAESGQKRLDEARA
B23: traf2_out_20_3_2213 (protein)
chain: DELVAAVREQLAKIRELLEQARPRLAPEDYARLNALLARAEEALETDPSDALVALSELRRALLELAERARAAGDEELAKLLEEAAEAANKAANLVMQLLE
B24: traf2_out_13_95_1205 (protein)
chain: EEEKTKKLREVTNKIADDLIDFTEATADAIEAATGNAAYRDEILAALRRHGVRAAIALIREYAAADPAHAAVYEAAAAALEAKVREAGREVAKADKEIAE
B25: traf2_out_11_155_671 (protein)
chain: EEKQKLNNELVNELTDIADALKAEVTAILEETAAAHPEHAAALAAVRAAGATLSGTSFARRAAQLLRELGLEEAAARVEALLEEAQKKMNEVYKKYEKKL
B26: traf2_out_18_3_1899 (protein)
chain: KEEELKKVTEEIDKIIDEVTAKAREVLDWLAAHAPEVADRVAALRADLDAGAGPFGILEELAELAREAGFEEEAAEIEAFLKEKRKKLQELVEEYEKLRK
B27: traf2_out_13_95_1119 (protein)
chain: SAEVAARIMAIADEMEEKVLAVLEKLLAKAKAAGKAVEEVTAILELAKHGTINEVIHRLKELAKKYPELKAEFDAAIKELEAIRREAGRRVAEILREEEE
B28: traf2_out_19_16_1964 (protein)
chain: AAEELERLREELEEIERRVEELERYFEANEETLTREEASDLLVEVSELRRRAREILQELDRLAPYDPEEVERLRERAEEVIERAQRLANRLVEHYLALRK
B29: traf2_out_11_169_887 (protein)
chain: EEEEKNRKFNDFALELNDEAKKELLEFALKLAKEKGLDVEEVKKIYEENKNKSLSYLASELIRYFKEKGDEEAAKKVLEKYEELKEKINKEGTKKLKELE

Biological target: T1, TRAF2, Q12933
Test: median log2 fold change of GCK-ALFA target abundance (FLAG IP / Myc IP barcode read proportion) (log2 ratio); each designed protein is fused to an ALFA-tag nanobody in HEK293 cells to bring the named protein to FLAG-tagged glucokinase (GCK); Myc marks an untargeted standard; higher = target protein stabilised (more abundant)
Conditions: target protein: 3xFLAG-MCP-GCK-ALFA reporter; HEK293 landing pad (RPLP)
Outline: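 HEK293 landing-pad cells received a recombined binder library fused to the ALFA nanobody and were induced with 2 μg mL^−1 doxycycline, then transfected with a plasmid encoding a FLAG-tagged target and a Myc-tagged standard. Lysates were collected after 48 h for anti-FLAG and anti-Myc immunoprecipitation, and the circular RNA barcodes were reverse transcribed, amplified and sequenced. Target abundance for each binder is the median log2 ratio of FLAG to Myc barcode read proportions. Barcodes had to reach a proportion of at least 10^−7 in both replicates, each binder needed at least 3 barcodes per replicate, a pseudocount of 10^−6 was applied, and the two replicates were pooled.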

Binder | median log2 fold change
B1 | 0.242
B2 | 0.373
B3 | 0.373
B4 | 0.267
B5 | -0.516
B6 | 0.215
B7 | -0.0162
B8 | 0.213
B9 | 0.107
B10 | 0.267
B11 | 0.281
B12 | -0.256
B13 | -0.162
B14 | 0.219
B15 | 0.299
B16 | -0.000551
B17 | -0.00811
B18 | -0.0761
B19 | -0.392
B20 | 0.411
B21 | -0.98
B22 | 0.198
B23 | 0.129
B24 | 0.149
B25 | 0.285
B26 | 0.766
B27 | 0.0752
B28 | -0.167
B29 | 0.184
